According to PubChem BioAssay AID686971 (National Center for Advancing Translational Sciences (NCATS), 2013):
Screen size: about 360,000 compounds; about 7,500 (2.1%) were called active. The shares of active, inactive and inconclusive entries below differ from those in the screen. Calls come from the whole dose curve; as a rule, active = well fitted cell-killing curve with a large enough effect; inconclusive = small, poorly fitted or top-dose-only effect, or effect the other way, or another doubt; inactive = no such curve, though single readings can be large or run the other way. No potency is given beside an inconclusive call; the fits are too rough.

Test: qHTS for induction of synthetic lethality in tumor cells producing 2HG: qHTS for the HT-1080-IDH1KD cell line;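 for activity, negative = toxicity: 0% = DMSO wells and -100% = cell-free medium wells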
Conditions: HT-1080 IDH1 knockdown viability, ATP luminescence, 48 h; activity, negative = toxicity: at 46.1 µM (top of the series) unless noted
In short: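 After a 2 h attachment period, IDH1KD HT-1080 cells took pin-transferred compound for 48 h at 37 °C; ATP-based luminescence after 10 min room-temperature reagent incubation reported viability.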
Potency is the fitted concentration of half-maximal effect; tags give direction and shape of the fitted curve.

SMILES	Potency	activity, negative = toxicity
CC(=O)Nc1ccc(NC(=O)c2cccc(S(=O)(=O)N3CCCCCC3)c2)cc1	inconclusive [cytotoxic, single point]	–
CC(=O)NNc1nc(-c2ccccc2)cs1	–	inactive: -1.83%
O=C(Nc1ccon1)c1sc2ccccc2c1Cl	–	inconclusive: 8.62%
O=C(/C=C/c1ccccc1)Nc1nc(-c2ccncc2)cs1	inconclusive [cytotoxic, single point]	–
CC(C)(O)CCc1c(-c2ccc(O)cc2O)oc2c3c(cc(O)c2c1=O)OC(C)(C)C=C3	–	inactive: -14.8%
C[C@@H]1[C@@H](Sc2ccccc2)CC(=O)O[C@@H]1c1ccc(-c2ccccc2)cc1	inconclusive [cytotoxic, single point]	–
O=C(c1cc(-c2cccs2)on1)N1CCN(c2ccc(F)cc2)CC1	inconclusive [cytotoxic, single point]	–
O=C(CSc1ccc2ccccc2n1)N/N=C/c1ccccc1O	inconclusive [cytotoxic, partial curve]	–
COc1cccc(CN(C)C(=O)COc2ccc(C(=O)c3ccc(Cl)cc3)cc2)c1OC	inconclusive [cytotoxic, partial curve]	–
CN(C(=O)c1ccc(NC(=O)C2CCN(C(=O)OC(C)(C)C)CC2)cc1)C1CCC1	–	inactive: 8.17%
COc1ccc(C(C)(O)c2nc(-c3ccc4c(c3)OCO4)cs2)cc1 (stereo unspecified)	inconclusive [cytotoxic, single point]	–
COc1ccc(CCN2C(=O)N[C@@H](C(C)C)C2=O)cc1	–	inactive: 9.9%
CCN(CC)C(=O)C1=C(C)N(Cc2ccc(C(C)(C)C)cc2)C(=O)C(CC(=O)NCc2cccc3ccccc23)C1 (stereo unspecified)	inconclusive [cytotoxic, single point]	–
CCOC(=O)c1ccc(NC(=O)CCC(=O)NCc2ccco2)cc1	inconclusive [cytotoxic, single point]	–
O=C(CN1C2=NCCCN2c2ccccc21)c1ccc2c(c1)OCO2	inconclusive [cytotoxic, full curve]	–
C/C(=N\NC(=O)c1cccc(Br)c1)c1ccccn1	inconclusive [cytotoxic, full curve]	–
C/C(=N\NC(=S)NC1CCCCC1)c1ccc(OC(F)F)cc1OC(F)F	inconclusive [cytotoxic, single point]	–
O=C(CSc1nc(-c2ccco2)cc(C(F)(F)F)n1)Nc1ccc2c(c1)CCC2	inconclusive [cytotoxic, single point]	–
COc1ccc(CCNC(=O)c2cc3cc(Cl)ccc3nc2N)cc1OC	active: 18.4 µM	–
COc1ccc(CN(CCC(c2ccco2)C(C)C)C(C)=O)cc1OC (stereo unspecified)	–	inactive: -8.58%
COC(=O)C1=CN(Cc2ccc(F)cc2)C=C(C(=O)OC)C1c1cc(OC)c(OC)c(OC)c1	–	inactive: -17.7%
COc1ccc(N=C2C(=Nc3ccc(OC)cc3)N(c3ccc(N(C)C)cc3)C(=S)N2c2ccc(OC)cc2)cc1	–	inconclusive: -11.8% [cytotoxic]
Cc1ccc(S(=O)(=O)NC(=O)c2ccc(Br)o2)cc1	–	inactive: 19%
CCN(c1cccc(C(F)(F)F)c1)S(=O)(=O)c1ccc2c(c1)CCN2C(C)=O	inconclusive [cytotoxic, single point]	–

SMILES	Potency	activity, negative = toxicity
CCOC(=O)c1cccc(NC(=O)C2CCN(S(=O)(=O)c3cccs3)CC2)c1	inconclusive [cytotoxic, single point]	–
Cc1nn(-c2ccccc2)c(C)c1/C=N/NC(=O)c1cc(-c2ccc(Br)s2)[nH]n1	inconclusive [cytotoxic, full curve]	–
CCOC(=O)c1c(NC(C)=O)sc2c(OCC(O)CN(CC)CC)c(Br)ccc12 (stereo unspecified)	inconclusive [cytotoxic, single point]	–
COc1ccc(CCNC(=O)Nc2nc(C(N)C3CCCCC3)cs2)cc1OC (stereo unspecified)	inconclusive [cytotoxic, single point]	–
CN(c1cccc(NC(=O)CSc2ccc(Cl)cc2)c1)S(C)(=O)=O	inconclusive [cytotoxic, single point]	–
Cc1ccc(C)c2sc(N3CCN(C(=O)c4ccc([N+](=O)[O-])o4)CC3)nc12	inconclusive [cytotoxic, partial curve]	–
O=C(NCc1ccccc1F)C1CCCN1C(=O)Nc1ccccc1 (stereo unspecified)	–	inactive: -0.227%
OC(c1ccc2c(c1)OCO2)c1ncc(-c2ccc(Cl)cc2)[nH]1 (stereo unspecified)	–	inactive: -21.4%
COC(=O)[C@]12CCCCC=C1N(Cc1ccc3c(c1)OCO3)C(=O)[C@H](CC(=O)NCCc1ccccc1OC)C2	active: 11.6 µM	–
C=C(C1=CCN(S(=O)(=O)C(C)(C)C)[C@H]1CCO)c1ccccc1	–	inactive: -2.45%
CN1CCN(CCCNc2c(C=O)c(=O)[nH]c3ccccc23)CC1	–	inactive: 7.6%
CCCCN(CCCC)Cc1ccc(C(=O)NNC(=O)Nc2ccccc2)o1	–	inactive: -1.26%
CC1(C)COC(Cn2c3ccccc3c3ccccc32)O1 (stereo unspecified)	active: 23.1 µM	–
Cc1cc(NC(=O)c2ccc(Cl)c(S(=O)(=O)N3CCCCC3)c2)no1	–	inconclusive: -31.3% [cytotoxic]
CCOC(=S)SCC(=O)Nc1nc(-c2ccc(Br)cc2)cs1	active: 6.51 µM	–
COc1ccc(C(=O)NC(C(=O)NCC2CCCO2)C(C)C)cc1 (stereo unspecified)	–	inconclusive: 30.7%
Cc1cc(C(O)c2ncc(-c3cccc(F)c3)[nH]2)ccc1F (stereo unspecified)	–	inactive: -0.0418%
CC(=O)c1cn(CC(=O)Nc2c(C)cccc2C)c2ccccc12	inconclusive [cytotoxic, single point]	–
O=C(Nc1ccc(N2CCCCC2)cc1)c1ccc([N+](=O)[O-])o1	active: 2.31 µM	–
COc1ccc(C(N)c2csc(NC(=O)Nc3cccc(C(F)(F)F)c3)n2)cc1 (stereo unspecified)	active: 18.4 µM	–
Nc1nnc(SCC(=O)Nc2cccc(Cl)c2)s1	–	inactive: 8.17%
Cc1[nH]n(-c2ccc([N+](=O)[O-])cc2)c(=O)c1C=NCCN1CCN(C(=O)c2ccc(Br)cc2)CC1	inconclusive [cytotoxic, partial curve]	–
O=C(Nc1cccc(O)c1)c1cccc(NC(=O)c2cccs2)c1	inconclusive [cytotoxic, partial curve]	–
O=C(CCc1ccccc1)Nc1ccccc1[N+](=O)[O-]	–	inactive: 19.6%

SMILES	Potency	activity, negative = toxicity
N=c1oc2cc(O)ccc2cc1C(=O)Nc1ccc(Br)cc1	inconclusive [cytotoxic, partial curve]	–
O=[N+]([O-])c1ccc(N/N=C2/CCCCC2c2ccccn2)cc1 (stereo unspecified)	active: 0.92 µM	–
CC(C)(C)c1nn(-c2ccccc2)c2[nH]c(=O)c(CNc3ccc4c(c3)OCCO4)cc12	inconclusive [cytotoxic, single point]	–
COc1cccc(C(C)NC(=O)Nc2cc(Cl)ccc2OC)c1 (stereo unspecified)	inconclusive [cytotoxic, single point]	–
COc1ccc(OCC(=O)N2CCN(c3nnc(-c4ccc(C)cc4)c4ccccc34)CC2)cc1	inconclusive [cytotoxic, single point]	–
CCOC(=O)C1CCN(C(c2cccnc2)c2c(NC(=O)c3ccco3)sc(C)c2C)CC1 (stereo unspecified)	inconclusive [cytotoxic, single point]	–
Cc1nc2ccc(NC(=O)CSc3nnc(C)s3)cc2[nH]1	inconclusive [rising, single point]	–
CC1=C(c2ccccc2)SC2=NCCN21	–	inactive: -6.56%
CCc1ccc2c(c1)C1(C(=O)N2)N2CCCC2C(C(=O)c2ccc3ccccc3c2)C12C(=O)Nc1ccccc12 (stereo unspecified)	active: 20.6 µM	–
COc1cccc(C2=CC(c3ccccc3)n3nnnc3N2)c1 (stereo unspecified)	inconclusive [cytotoxic, full curve]	–
Cc1cc(=O)n(C)c(=O)n1CCCCCCOc1cccc([N+](=O)[O-])c1	–	inactive: 1.46%
COc1ccc(Nc2cc(C)nc3ccc(OC)cc23)cc1	inconclusive [cytotoxic, single point]	–
O=C(Nc1ncc([N+](=O)[O-])s1)C1COc2ccccc2O1 (stereo unspecified)	inconclusive [cytotoxic, single point]	–
C=CCn1c(SCC(=O)c2c(C)[nH]c3ccccc23)nnc1-c1ccncc1	inconclusive [rising, single point]	–
COc1cc(OC)cc(-c2cc3ccc(OC)cc3cn2)c1	inconclusive [cytotoxic, single point]	–
CCN(CC(=O)Nc1ccc2c(c1)OCCO2)C(=O)/C=C/c1cccc(C(F)(F)F)c1	–	inactive: 13.5%
COc1ccc(-c2cc(-c3cccs3)c(C#N)c(SCC(=O)NCc3ccco3)n2)cc1	active: 2.31 µM	–
COc1cc(C(CCN2CCCC2)c2c(OC)cc(OC)c3c(-c4ccccc4)cc(=O)oc23)cc(OC)c1OC (stereo unspecified)	–	inactive: -18.6%
CC(C)(C)S(=O)N1Cc2cc(C(=O)NCc3ccc4c(c3)OCO4)nc(-c3cccc(-c4cc5ccccc5o4)c3)c2[C@@H]1CCO (stereo partly specified)	inconclusive [cytotoxic, single point]	–
O=[N+]([O-])c1cccc(C(=Nc2cccc(Cl)c2)NO)c1	inconclusive [cytotoxic, partial curve]	–
CC(=O)Nc1ccc(NC(=O)CCOc2cc(C)ccc2C)cc1	inconclusive [cytotoxic, single point]	–
COc1ccc(-c2ccc(C(c3c(C)[nH][nH]c3=O)c3c(C)[nH][nH]c3=O)o2)c([N+](=O)[O-])c1	active: 25.9 µM	–
COC(=O)c1ccc(C2/C(=C(/O)c3ccc(OC)cc3)C(=O)C(=O)N2c2cc(C)on2)cc1 (stereo unspecified)	inconclusive [cytotoxic, single point]	–
